PubChem BioAssay (Tox21)
Activity calls are given as the source filed them. Unless noted, calls come from the whole dose curve; as a rule, active = well fitted curve in the direction sought with a large enough effect in the repeat runs; inconclusive = weak or mixed curves; inactive = no such curve, though single readings can be large; an effect the other way counts as inactive or inconclusive.

How the values were obtained:
[1] = qHTS assay for identifying genotoxic compounds that show differential cytotoxicity against isogenic chicken DT40 cell lines with known DNA damage response pathways - wild type cell line (AID 743012); conditions: DT40 wild type chicken cells viability, CellTiter-Glo, 40 h; activity change, negative = cytotoxicity: at 68.4 µM (top of the series) unless noted; note: nearly all actives have a fitted effect of over 60% in size; note: potency is the fitted concentration of half-maximal effect; for activity change, negative = cytotoxicity: % is set by controls: 0 for no effect and ±100 for the full control effect
Outline: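 First, wild type DT40 cells were plated at 300 per well and equilibrated about 0.5 h at 37 C/5% CO2. Next, compounds in DMSO were added and exposure lasted 40 h. Finally, CellTiter-Glo was added for 30 min at room temperature and luminescence recorded.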

[2] = qHTS assay for identifying genotoxic compounds that show differential cytotoxicity against isogenic chicken DT40 cell lines with known DNA damage response pathways - Rad54/Ku70 mutant cell line (AID 743015); conditions: DT40 Rad54/Ku70 mutant viability, CellTiter-Glo, 40 h; activity change, negative = cytotoxicity: at 66.8 µM (top of the series); note: potency is the fitted concentration of half-maximal effect; nearly all actives have a fitted effect of over 60% in size
[3] = qHTS assay to identify small molecule antagonists of the androgen receptor (AR) signaling pathway - cell viability counter screen (AID 743033; note: nearly all actives have a fitted effect of over 45% in size; note: potency is the fitted concentration of half-maximal effect); conditions: AR-bla HEK293 viability, CellTiter-Glo luminescence, 16 h; activity change, negative = cytotoxicity: at 58.5 µM (top of the series)
[4] = molecular target: Aromatase (Homo sapiens) (UniProt P11511); assay: qHTS assay to identify aromatase inhibitors (AID 743083); note: nearly all actives have a fitted effect of over 55% in size; note: potency is the fitted concentration of half-maximal effect; for activity, negative = inhibition: % is set by controls: 0 for no effect and ±100 for the full control effect
Chain of UniProt P11511 (P11511 whole entry, looked up): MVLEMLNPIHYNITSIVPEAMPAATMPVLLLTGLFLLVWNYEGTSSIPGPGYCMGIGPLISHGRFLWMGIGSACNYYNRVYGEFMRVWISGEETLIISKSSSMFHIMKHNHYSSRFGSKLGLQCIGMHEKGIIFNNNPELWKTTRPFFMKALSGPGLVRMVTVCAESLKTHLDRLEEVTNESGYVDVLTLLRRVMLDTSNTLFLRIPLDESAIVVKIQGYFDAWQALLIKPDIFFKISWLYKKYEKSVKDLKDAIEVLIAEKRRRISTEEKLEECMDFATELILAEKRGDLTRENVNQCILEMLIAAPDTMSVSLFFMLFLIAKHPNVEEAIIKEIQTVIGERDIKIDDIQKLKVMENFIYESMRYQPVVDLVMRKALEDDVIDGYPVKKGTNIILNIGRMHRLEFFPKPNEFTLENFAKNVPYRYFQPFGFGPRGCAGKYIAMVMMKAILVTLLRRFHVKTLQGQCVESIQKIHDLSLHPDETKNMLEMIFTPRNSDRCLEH

[5] = qHTS assay to identify aromatase inhibitors - cell viability counter screen (AID 743084); conditions: MCF-7 aro ERE viability, CellTiter-Fluor, 24 h; activity change, negative = cytotoxicity: at 70.3 µM (top of the series);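 note: cells stimulated with testosterone during compound exposure; potency is the fitted concentration of half-maximal effect; nearly all actives have a fitted effect of over 55% in size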
[6] = molecular target: Androgen receptor (Homo sapiens) (UniProt P10275); assay: qHTS assay to identify small molecule antagonists of the androgen receptor (AR) signaling pathway (AID 743035; active = well fitted inhibition curve with a large enough effect in the signal ratio in the repeat runs, not every such curve was filed as active; inconclusive = weak or mixed curves, or effect the other way; inactive = no such curve, though single readings can be large or run the other way; the % refers to the signal ratio; note: potency is the fitted concentration of half-maximal effect); conditions: HEK293 AR-UAS-bla, R1881-stimulated, beta-lactamase FRET, 16 h; activity change, negative = inhibition: at 58.5 µM (top of the series) unless noted
Chain of UniProt P10275 (P10275 whole entry, looked up): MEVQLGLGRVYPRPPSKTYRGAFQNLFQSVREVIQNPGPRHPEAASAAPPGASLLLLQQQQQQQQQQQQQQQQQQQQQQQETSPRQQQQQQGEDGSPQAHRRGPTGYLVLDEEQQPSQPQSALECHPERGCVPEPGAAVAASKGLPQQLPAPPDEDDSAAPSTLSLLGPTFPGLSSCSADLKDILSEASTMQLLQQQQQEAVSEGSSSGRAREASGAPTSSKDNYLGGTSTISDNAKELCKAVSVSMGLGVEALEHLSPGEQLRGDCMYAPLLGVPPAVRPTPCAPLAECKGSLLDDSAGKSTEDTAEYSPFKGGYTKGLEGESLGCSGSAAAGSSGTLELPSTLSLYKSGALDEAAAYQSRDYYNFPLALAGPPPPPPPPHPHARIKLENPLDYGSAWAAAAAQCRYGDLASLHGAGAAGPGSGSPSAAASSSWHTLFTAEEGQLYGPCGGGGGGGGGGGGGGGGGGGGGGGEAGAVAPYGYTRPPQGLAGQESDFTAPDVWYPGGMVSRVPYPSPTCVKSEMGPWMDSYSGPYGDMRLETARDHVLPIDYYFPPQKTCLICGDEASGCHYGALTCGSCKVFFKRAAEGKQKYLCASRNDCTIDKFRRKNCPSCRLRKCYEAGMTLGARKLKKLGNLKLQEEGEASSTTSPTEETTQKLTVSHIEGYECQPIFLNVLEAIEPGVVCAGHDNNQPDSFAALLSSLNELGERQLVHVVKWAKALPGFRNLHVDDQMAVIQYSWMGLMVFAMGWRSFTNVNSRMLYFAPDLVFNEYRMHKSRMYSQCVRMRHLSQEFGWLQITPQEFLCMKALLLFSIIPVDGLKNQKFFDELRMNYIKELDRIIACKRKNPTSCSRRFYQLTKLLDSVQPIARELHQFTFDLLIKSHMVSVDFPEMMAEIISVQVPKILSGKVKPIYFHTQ
Outline: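 Beta-lactamase FRET read (2 h RT incubation with LiveBLAzer B/G) following 16 h of compound plus R1881 treatment of AR-UAS-bla HEK293 cells, which had been pre-incubated 4 h at 37C.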

[7] = molecular target: Androgen receptor (Homo sapiens) (UniProt P10275); assay: qHTS assay to identify small molecule agonists of the androgen receptor (AR) signaling pathway (AID 743036; active = well fitted activation curve with a large enough effect in the signal ratio in the repeat runs, with a control signal flat, not every such curve was filed as active; inconclusive = weak or mixed curves, or effect the other way; inactive = no such curve, though single readings can be large or run the other way; the % refers to the signal ratio; note: potency is the fitted concentration of half-maximal effect); conditions: HEK293 AR-UAS-bla GripTite, beta-lactamase FRET ratio, 16 h; activation: at 62.4 µM (top of the series) unless noted
Outline: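 Activation was read as beta-lactamase FRET signal from LiveBLAzer B/G substrate, added for 2 h at room temperature. Before that, GeneBLAzer AR-UAS-bla GripTite (HEK293) cells had 16 h compound exposure at 37C.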

[8] = qHTS assay to identify small molecule antagonists of the estrogen receptor alpha (ER-alpha) signaling pathway - cell viability counter screen (AID 743074; calls by dose curve;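 note: HEK293 cells carrying ER-alpha-UAS-bla reporter stimulated with 17beta-estradiol; nearly all actives have a fitted effect of over 45% in size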; note: potency is the fitted concentration of half-maximal effect)
[9] = molecular target: Estrogen receptor (Homo sapiens) (UniProt P03372); assay: qHTS assay to identify small molecule agonists of the estrogen receptor alpha (ER-alpha) signaling pathway using the BG1 cell line (AID 743079); conditions: BG1Luc4E2 cells, ERE-luciferase agonist, 22 h; activation: at 70.3 µM (top of the series) unless noted; note: % is set by controls: 0 for no effect and ±100 for the full control effect; nearly all actives have a fitted effect of over 20% in size
Chain of UniProt P03372 (P03372 whole entry, looked up): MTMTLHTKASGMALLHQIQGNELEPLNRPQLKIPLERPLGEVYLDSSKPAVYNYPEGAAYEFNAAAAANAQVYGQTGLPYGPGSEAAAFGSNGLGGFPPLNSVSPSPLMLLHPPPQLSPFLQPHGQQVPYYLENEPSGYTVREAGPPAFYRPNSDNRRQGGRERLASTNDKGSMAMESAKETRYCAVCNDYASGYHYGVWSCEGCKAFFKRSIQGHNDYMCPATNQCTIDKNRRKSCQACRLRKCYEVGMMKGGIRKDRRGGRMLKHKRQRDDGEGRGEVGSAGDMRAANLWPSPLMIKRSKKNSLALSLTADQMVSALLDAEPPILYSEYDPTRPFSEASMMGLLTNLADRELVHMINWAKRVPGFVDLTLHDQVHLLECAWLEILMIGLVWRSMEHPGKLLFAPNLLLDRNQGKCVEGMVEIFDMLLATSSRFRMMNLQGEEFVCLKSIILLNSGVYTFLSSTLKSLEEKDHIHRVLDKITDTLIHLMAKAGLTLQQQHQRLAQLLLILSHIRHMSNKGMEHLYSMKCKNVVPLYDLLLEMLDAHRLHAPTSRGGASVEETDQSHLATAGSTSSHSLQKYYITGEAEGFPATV

[10] = qHTS assay to identify small molecule antagonists of the estrogen receptor alpha (ER-alpha) signaling pathway using the BG1 cell line (AID 743080; calls by dose curve;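 note: BG1 cells stimulated with 17beta-estradiol alongside compound; nearly all actives have a fitted effect of over 25% in size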; note: potency is the fitted concentration of half-maximal effect; for activity change, negative = inhibition: % is set by controls: 0 for no effect and ±100 for the full control effect); conditions: BG1Luc4E2 ERE-luciferase antagonist mode, luminescence; activity change, negative = inhibition: at 70.3 µM (top of the series) unless noted
Outline: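 Seeding, 24 h rest, compound transfer from DMSO, 17beta-estradiol addition, 21.5 h incubation, CellTiter-Fluor (30 min, 37 C), then ONE-Glo (30 min, room temperature): this sequence was run on BG1-Luc-4E2 reporter cells.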

[11] = qHTS assay to identify small molecule antagonists of the thyroid receptor (TR) signaling pathway - cell viability counter screen (AID 743064); conditions: GH3.TRE-Luc viability, CellTiter-Fluor, 24 h; activity change, negative = cytotoxic: at 70.3 µM (top of the series) unless noted; note: nearly all actives have a fitted effect of over 50% in size; note: potency is the fitted concentration of half-maximal effect
Outline: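 In-well cytotoxicity read by CellTiter-Fluor (30 min, 37 C) following 23.5 h exposure of GH3 cells bearing a TRE-luciferase sensor. Compounds were added alongside 1 nM (final) T3 to drive TR transactivation.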

[12] = molecular target: Estrogen receptor (Homo sapiens) (UniProt P03372); assay: qHTS assay to identify small molecule antagonists of the estrogen receptor alpha (ER-alpha) signaling pathway (AID 743069; active = well fitted curve in the direction sought with a large enough effect in the signal ratio in the repeat runs, not every such curve was filed as active; inconclusive = weak or mixed curves, or effect the other way; inactive = no such curve, though single readings can be large or run the other way; the % refers to the signal ratio; note: potency is the fitted concentration of half-maximal effect); conditions: HEK293 ER-alpha-UAS-bla, beta-lactamase ratio, antagonist mode; activity, negative = inhibition: at 69.4 µM (top of the series) unless noted
Outline: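 Estradiol-stimulated ER-alpha-UAS-bla HEK293 cells, 18 hr compound exposure at 37C. LiveBLAzer B/G substrate, 2 hr RT, fluorescence read.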

[13] = qHTS assay to identify small molecule antagonists of the androgen receptor (AR) signaling pathway using the MDA cell line - cell viability counter screen (AID 743041; note: potency is the fitted concentration of half-maximal effect; nearly all actives have a fitted effect of over 45% in size); conditions: MDA-kb2 viability, CellTiter-Fluor, 16 h, cells co-treated with R1881 androgen agonist; viability change, negative = cytotoxic: at 70.3 µM (top of the series) unless noted
Outline: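 Viability counter screen run alongside the AR antagonist reporter: cells seeded 5 h before compound, R1881 added, 16 h incubation at 37C without CO2, fluorescent CellTiter-Fluor signal quantified.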

[14] = qHTS assay to identify small molecule antagonists of the thyroid receptor (TR) signaling pathway (AID 743065); note: potency is the fitted concentration of half-maximal effect; nearly all actives have a fitted effect of over 55% in size
Outline: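 GH3.TRE-Luc rat pituitary cells carrying two TR response elements driving luciferase were plated for 4 h, given compound plus 1 nM T3 (final), and incubated 23.5 h at 37 C. ONE-Glo luminescence measured reporter inhibition; CellTiter-Fluor fluorescence tracked cytotoxicity.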

[15] = qHTS assay to identify small molecule antagonists of the estrogen receptor alpha (ER-alpha) signaling pathway using the BG1 cell line - cell viability counter screen (AID 743081);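 note: compound given together with 17beta-estradiol as the ER stimulus; potency is the fitted concentration of half-maximal effect; nearly all actives have a fitted effect of over 45% in size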
[16] = molecular target: Estrogen receptor (Homo sapiens) (UniProt P03372); assay: qHTS assay to identify small molecule agonists of the estrogen receptor alpha (ER-alpha) signaling pathway (AID 743075; calls by dose curve;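 note: HEK293 GripTite cells with ER-alpha and UAS-driven beta-lactamase reporter; % is set by controls: 0 for no effect and ±100 for the full control effect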)
Tags give direction and shape of the fitted curve or compound fluorescence and quenching.

CC1C2CC(CC2C2CCCC(O)C2)C1(C)C (stereo not given)
Potency [1]: inconclusive: 27.3 µM [cytotoxic]
Potency [2]: inconclusive: 27.3 µM [cytotoxic, single point]
Potency [3]: inconclusive: 43.6 µM [cytotoxic, single point]
Potency [4]: inconclusive: 61.1 µM [inhibitor, single point]
Potency [5]: inconclusive: 68.6 µM [cytotoxic, single point]

CCO[Si](OCC)(OCC)OCC
Potency [1]: inactive
Potency [2]: inconclusive: 27.8 µM [cytotoxic, partial curve, poor fit]

C/C=C/C=C/C=O
Potency [1]: inconclusive: 24.2 µM [rising, partial curve, poor fit]
Potency [2]: inconclusive: 68.1 µM [cytotoxic, single point]
Potency [6]: inconclusive: 1.94 µM [rising, full curve]
Potency [7]: inconclusive: 43.3 µM [activator, partial curve, poor fit]
Potency [8]: inconclusive: 54.6 µM [rising, single point]
Potency [9]: inactive
Potency [10]: inactive
Potency [4]: inactive

O=C(OCCOCCO)c1ccccc1Nc1cccc(C(F)(F)F)c1
Potency [1]: inconclusive: 10.1 µM [cytotoxic, partial curve]
Potency [2]: inconclusive: 14.3 µM [cytotoxic, single point]
Potency [11]: inconclusive: 4.52 µM [cytotoxic, partial curve, poor fit]
Potency [12]: inactive

O=C(CS)Nc1ccccc1
Potency [1]: active: 11.9 µM
Potency [2]: active: 18.8 µM
activity change, negative = cytotoxicity [3]: inconclusive: -34.7% [cytotoxic]
Potency [13]: inconclusive: 33.5 µM [cytotoxic, single point]
Potency [11]: inconclusive: 33.5 µM [cytotoxic, single point]
Potency [14]: inconclusive: 29.8 µM [inhibitor]
Potency [12]: active: 15.1 µM [inconclusive]
Potency [15]: inconclusive: 33.5 µM [cytotoxic, partial curve, poor fit]

O=C(C(Cl)Cl)N1CCOC12CCCCC2
Potency [1]: inconclusive: 0.969 µM [rising, single point]
Potency [2]: inconclusive: 54.5 µM [cytotoxic, single point]
Potency [13]: inconclusive: 34.4 µM [cytotoxic, partial curve, poor fit]
Potency [11]: inconclusive: 61.1 µM [cytotoxic, partial curve]
Potency [8]: inactive
Potency [5]: inconclusive: 27.3 µM [cytotoxic, partial curve]

CC(C)(C)c1cccc(O)c1
Potency [1]: inconclusive: 77 µM [cytotoxic, single point]
Potency [2]: inconclusive: 30.6 µM [cytotoxic, partial curve]
Potency [7]: inactive

CC[Si](OC(C)=O)(OC(C)=O)OC(C)=O
Potency [1]: inconclusive: 30.6 µM [rising, single point]
Potency [2]: inconclusive: 54.4 µM [cytotoxic, partial curve, poor fit]
Potency [11]: inactive

CC(C)(C)NCC(O)COc1cccc2c1CCC(=O)N2 (stereo not given)
Potency [1]: inconclusive: 14.3 µM [cytotoxic, single point]
Potency [2]: inconclusive: 14.3 µM [cytotoxic]
Potency [6]: inactive
Potency [5]: inconclusive: 0.0051 µM [rising, full curve, poor fit]

C[Si](NC1CCCCC1)(NC1CCCCC1)NC1CCCCC1
Potency [1]: inconclusive: 68.6 µM [cytotoxic, single point]
Potency [2]: inconclusive: 68.6 µM [cytotoxic, single point]
Potency [3]: inconclusive: 49 µM [cytotoxic, single point]
Potency [14]: inconclusive: 68.6 µM [inhibitor, partial curve, poor fit]
Potency [9]: inactive

O=C(O)[C@@H]1[C@H]2C[C@H]3c4[nH]c5ccccc5c4CCN3C[C@@H]2CC[C@@H]1O
activity change, negative = cytotoxicity [1]: inconclusive: -42.8% [cytotoxic] [at 31.4 µM]
Potency [2]: inconclusive: 11.4 µM [cytotoxic, partial curve, poor fit]
Potency [6]: inactive
Potency [10]: inconclusive: 1.14 µM [rising, full curve, poor fit]

Nc1ccc(N=Nc2ccc(N)cc2)cc1
Potency [1]: inconclusive: 27.3 µM [partial curve]
Potency [2]: inconclusive: 30.6 µM [cytotoxic, partial curve, poor fit]
Potency [13]: inconclusive: 30.6 µM [cytotoxic, partial curve]
Potency [11]: active: 24.3 µM
Potency [16]: inactive
Potency [10]: inactive
Potency [15]: inconclusive: 27.3 µM [cytotoxic, partial curve]
Potency [5]: inconclusive: 12.2 µM [cytotoxic, partial curve]

O=C(c1ccc(F)cc1)C1CCN(CCn2c(=O)[nH]c3ccccc3c2=O)CC1
Potency [1]: inconclusive: 11.9 µM [cytotoxic, partial curve]
Potency [2]: inconclusive: 11.9 µM [cytotoxic, single point]
activity change, negative = inhibition [6]: inconclusive: 46.7%
activation [7]: inconclusive: 20.6%
Potency [10]: inactive
